Experimental data reported in the supplement of paper PMC10681739.
± gives the standard deviation of the averaged measurements. In all, about 4,000 sequences were measured (“arbitrary fluorescence units”: median about 830, highest 2% from about 6,500 on). Most of the strongest results are missing from this list.

Biological target: RUNX1 (UniProt Q01196)
Assay: RUNX1 binding intensity (PBM fluorescence), RUNX1 alone (arbitrary fluorescence units); higher = stronger binding
Conditions: RUNX1 concentration 2 nM; ETS1 concentration 0 nM
Protocol: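 gcPBM on 36-bp genomic-derived probes (partner site mutated) containing one RUNX1 site and no ETS1 site. Recombinant human RUNX1 (2 nM) was incubated alone or with ETS1 (25 nM) and detected by anti-RUNX1 antibody fluorescence. Values are medians over 4 replicate spots (not normalised). The probes sit in constant array flanks that are not printed.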
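Also: Full-length recombinant human RUNX1 bound to double-stranded DNA microarray spots, detected with an Alexa488-labelled secondary antibody after the anti-RUNX1 primary, read as scanned spot fluorescence.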

UniProt Q01196, sequence (Q01196 whole entry): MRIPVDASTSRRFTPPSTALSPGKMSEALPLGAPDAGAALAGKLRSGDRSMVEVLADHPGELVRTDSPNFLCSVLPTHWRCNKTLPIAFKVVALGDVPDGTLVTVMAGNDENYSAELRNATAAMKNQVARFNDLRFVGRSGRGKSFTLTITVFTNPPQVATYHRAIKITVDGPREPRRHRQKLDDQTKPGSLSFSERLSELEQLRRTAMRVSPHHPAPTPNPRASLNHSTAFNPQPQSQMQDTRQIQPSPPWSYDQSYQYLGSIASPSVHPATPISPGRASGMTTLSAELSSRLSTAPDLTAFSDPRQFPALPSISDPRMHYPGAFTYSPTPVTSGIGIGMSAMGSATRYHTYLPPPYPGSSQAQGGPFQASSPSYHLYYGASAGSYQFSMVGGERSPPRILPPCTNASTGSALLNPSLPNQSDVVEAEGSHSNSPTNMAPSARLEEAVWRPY

| Sequence | RUNX1 binding intensity |
| --- | --- |
| GTGTCTGTGGTGTCGGCGCTGCATGATGACGCGAGC | 785 |
| AGAAGTGCGGTGGAGGAGGGCTGGAACGGTGACTAT | 757 |
| GGCGGCTCCCGGGATCTGCCTGGCGGTTGCTTTGTC | 665 |
| CTTCGACCCCGTAAGCGCTAACCACCCCGGGGGCCG | 842 |
| TGCTTCTGAGGCAGTGATCTGTGGTCAAAGAAAGAA | 780 |
| GCTAATGGAACCAGCACGCGGCCACCGCAGGAACCT | 965 |
| GAATGACAGAAAGATGATTAGTGATAGTGGGTTTGG | 764 |
| CCAGTACCCCACTTGCTGACCAAACCACAAAGGTCA | 1910 |
| TCGGCGGCTATGAAAAAAAGTCCGTGGTCACGTGCA | 775 |
| GTCTTGTTTTGTGGTGTAAGCACGTCCCGCTAAGCA | 1290 |
| TGCGAACCTTGTGGCTTTGTCTGTTTCATGTTTCAG | 945 |
| ACCACCCACCTCCCGCGCAGTTCCAAACCGCGACCA | 1350 |
| CCCTGCCGTCGCGGTGCACTCTGGGACATGTGATTT | 790 |
| GCTGGCAATTCGTTCCCTCTGTGGGAGGTGCTCCGC | 770 |
| GAGCAACCAGCAAGAGCTTTGGCTGTGGGCTAAGAT | 719 |
| TGGCCCCGGGGCCCCACAACGGCTTCATGTGTCCCG | 693 |
| CTGTGCTTGTGGGCGAAGCCAGCAAATAAGGATAAA | 766 |
| TTTGCTGTGGTTATGACTTTCAACATACTTGCTGCT | 1430 |
| GCTGCGGGCTGTCTTCACCTCAGACGTGAAGCTGCT | 767 |
| CATACAGCATGCTGGGGTATGTAAAACAAACCACGG | 799 |
| GGTCTTATCTTGTGGTTCCCAAGGAATCAGGTCCCG | 1280 ± 110 |
| CAGGCTGCTTCAGGCGCGCGGCAGAGCGGTCAGAGC | 716 |
| CCGAGACACCGCGGGCGAGCGCATGATGGGGTTGTC | 795 |
| ACAAGAGGAATTGAGTCTACCCATGATGCGGTCACA | 944 |
| AAGTCTGCATGTGGGAGAGGAACATGCTGTTTGCCT | 787 |

| Sequence | RUNX1 binding intensity |
| --- | --- |
| GCTTGTGGTTGGAAACCTGCAGTCACAGAGGAGGTG | 1860 |
| GCCACCTTACCACAGCTGTACAGAGCTCCCTTTAGC | 1970 |
| GTCCCTCCACAACCGCCCCCAGCTTGCTGCTCCCCA | 1370 |
| AACAGCTTACGGCACGGGGGCTGTGGTTGTGTTGGA | 801 |
| GGCTACGGCAACTCGCGAGAGCGCGGTTCAGAGGCA | 696 |
| CCCTGAGCACGTCCCCGTAAGGCTGCGGTGCACGGG | 820 |
| TAGAAGGCAGCGGTCTGAGTTCTGGAGTAGAAGGCA | 707 |
| CTCTGTGCCCTGCCGCAACAGACAGGGTGTGACTTC | 917 |
| ATCTGCAACCACGGAGGCTGCCGCGGGCTTCATGTC | 802 |
| GAGAAACATGAAGAGGGGTGGTGGTTACGGAACACG | 714 |
| GCGCGGGAGCAAGCCCCCCAATAATTGCGGGGCTTC | 772 |
| GCACACAGTGCGGTTGGCTTCCAGCTTCATGTTGGC | 1470 |
| GTGACGTGGCTGTGGGTCTCATTTGCTGCACGGCCT | 798 |
| AGACTTCACCGCAGCTTGCTGCCTCAGAGGAGGTCA | 1330 |
| GTGCTAAGTGAGGAGGTGCAGTTTACCGCACGGTGG | 790 |
| AGCGGCCAGGCCGCAGAGCCGGCCCCTTCAGCTTTA | 776 |
| TCTAGTAAAAGAGGGAGTTCTTAACCACATTTCCAT | 1030 |
| CTGCGGCTGGGACCCAGTTCCTGTACATGAAGACAT | 761 |
| GACCCCTACGCGGCACTCTCTCGCGGTAATTCGAAG | 947 |
| TGAAACCACAATTAAAAGCTCAGACCTCCTCCCCTC | 2360 |
| CCCGCTCCTGCGGCGCAAGCCCGCCTTGCTGAAGAA | 875 |
| GCCCTGCGGGCAGGAGAAGAGTCCGTAAATGGAAAT | 768 |
| AAGACAACATGCTGCCGGCACAGCCTGCGGGTTACT | 741 |
| ACCATGCTGTAGTCTGTTAAGTGAGCAACCGCATTA | 787 |
| CATCTGTGGTCTCCTTGAAGTCAGATCCCACAGGAG | 886 |

| Sequence | RUNX1 binding intensity |
| --- | --- |
| TAAGAGATTGCCTGTAAAGGTAACCACCAGCAAAGA | 752 |
| TTGACTGTGGGCCGAAGCCGGGCCGAAGCAGACAGG | 691 |
| GACCTCCTTCTCCACATACCTGAAAGTGGTTTCTGG | 1030 |
| ACAGTATTGTGGTGAATCATTCCATTCCAAGGCTCA | 966 |
| CTTTGTGGTCTGCCAGGCACGGATCTCCGCCCACTC | 2250 |
| AGTCAAACAGGGTGTGGCTGGGGAGGCGGTTGTCAC | 799 |
| TGGCATTCTCCTTCATGTCTCCTAACCACAGCCCAC | 2220 |
| AAAAATACCACACTAGCTAGGGCAGCAAGTGGGTGG | 905 |
| ATCTTGTTCAGGCTCAAAGGGAAACCGCTGCTTTTC | 914 |
| GGTGACGTCACCGCGTTCACCAGCCCGGGAGTGCGC | 734 |
| TGGCTTGTTTCAGGTTCCTCTGTGGCGCCGTTCTCG | 822 |
| AGAAGCTGCACCCTGAAATGAAACCACCAGGACCTC | 757 |
| GGTTGCCGGGTGAAAAAAAAAAAAAAAACCACGCCA | 906 |
| GGCAGACAGTAAACCGCGGCGTTTCATGGAGGGCGC | 1290 |
| TGGCCGCGGTCTGTAGACGCCCGGCTCCGGGAGTGC | 721 |
| GTGGAAGAAACCGCTTCGGCAGCAGAGGAATCAGCA | 837 |
| GCCTCCTTCATGGGCTCCTTTAAGAGGGTGGTAACG | 782 |
| ACCCACTTGCTGTTAGAGCATCTTTGCAACCACAGG | 729 |
| CGTTCTCTCATTTGCTGTGTGCACCCACATGAACCA | 1580 |
| CGGTAGGCGGTTATCCTCCAAGCTGGCAGGGAGCGC | 748 |
| GGGAGGACGAAGGGGCTGTGTGTGGGAGTTGGGGGC | 710 |
| TCTTTAAAACCCGAAAGTTCCTGTGGTTCATACGCT | 1010 |
| ATGAAACCAAAACCAAAAAGGAAGGTAACCAGAAAG | 839 |
| TCGGGAGGTGGCATGCTGACTCACCTGTGGCTTGTT | 797 |
| CTGACTTGTTGTGGTCTCTGCCACTTGCTGGGGTGT | 947 |

| Sequence | RUNX1 binding intensity |
| --- | --- |
| GCTCTGTGGGCTTGGAGGATGCAGGCGCCTTCATGG | 766 |
| CCGTAAGCGGTCTTTCCCCGAGCTGAAGCACAATGC | 882 |
| GGAACAGTAAACAAAGAAAGGTGCTGTTGTGGCGCC | 676 |
| CTCTTAACTCGCGGTCCCGCCCCTTCAGGCCAGTGT | 1110 |
| AGAGTCTTTTTTACTGAGCGTTTGCGGTTTTGACTT | 8560 |
| TTTCCACTGCCTGTTCTACTTGTGGCTACTGACTCA | 856 |
| AATCATTGCCTGCCCTAACGTTTGTGGTCTGCCTAG | 813 |
| CAGGGCCTGTGGTGCCTTGCGCAGCGGAGATGGCGC | 679 |
| TATTCATGACATGCTGTCGGGCTTGTGGGCTGCGTA | 737 |
| CCTCCTCTTCGTCCCCACTCTGCACATGCGGCTGGG | 1160 |
| GGGTCGCGGCCTTACGGCGAACGCGGTTACCGTGGA | 816 |
| GAAACCACACCAGCAAGCTTAAGTACATGAAGAATA | 946 |
| GCAAAAACAGCGGTCTTGAAGGCAGCCTGCCTGATA | 765 |
| GGTTTAACGTCTCCGGTTTGTGGCTAGTTTCTTGTC | 947 |
| CACCTCCCACTCACCACAGAGTTTCATGGTGTTTTA | 1090 |
| ATCTTCAGGGAGCGGTATCAACCTGAAAACCACCAC | 928 |
| GGCTGAAGGTTGCCGTGCTTGGAAACCGCGCCTCCG | 804 |
| AGTGTAGTAACCACAGGCCCCGAAAACCTCCCCCTC | 3630 |
| CCCGGCCACTGCCGCCTATTGCGGGCGTCGGCTAGG | 644 |
| GCCCTCACCGCAGTTCCTGCCCAACGACATACGGGT | 3800 |
| GCGCGGACTCCGAGAAGCTGAGCGGTAAAGACCGTG | 701 |
| GCGGCCTGCGGGAGGACGGTGGTGCTTTCCAGCCTA | 970 |
| AGCCCGCCGAAAACTAGCGTCACCGCGCCAAGGTTC | 771 |
| CCGGGTAGGATCCAGTTGCCTTTCTGCGGTGGAGGA | 839 |
| GTTTGAAGGGAACTGGGTGTTGACCTGCGGGCAACT | 694 |

| Sequence | RUNX1 binding intensity |
| --- | --- |
| TGGTTTGTGGGACACCTCAACAGCATGTTAGTGAGG | 726 |
| GCTTGACCTCAACACCTGCTACACTGCCTGAAGACA | 1160 ± 47 |
| TACTCTAAACCACTTCAAACCTCCACTTGCTGCCCC | 1340 |
| TGAAGGGACGGAGGGGACAGAACTTGCGGGAGGCAC | 689 |
| AGCCGGAGGCGCAAGGAGCAGCGCTACCGCAGCGTC | 738 |
| AATCTGTGGTTTCCACTGTTAGAATTTACTGCCTCT | 2100 |
| GTGGCTGCTGTGGTCAGGCTGTTCTTTCATGTTGCT | 1660 |
| CCGCCCTTCAGGCTGGCCCCGCTCAGTCACCCGCAG | 975 |
| CCGAGAAGTGGAACCGCCAGGCGGAGGGGGCGGAGT | 767 |
| ATAGTGCGGTGAGCCAACATGGGGGAGATGCCTGGA | 827 |
| GCCGGGAATGCGGGCTCTCCTGCCGTAAGCTGCCCC | 800 |
| AGTTTCTCCATGAAGCGCTGAGGTTTTCTCAGAAGT | 812 |
| TCGCTTACGGTGTCGGTTACAGACTGTGGTTGCCAT | 812 |
| TGTGGCCAGCACGCAAGAGCCCCACCACATGTGCTT | 775 |
| GACAATGTAGTGGTTGTCAGGAGGTTGCTAAGTCAT | 716 |
| CGGGTACCGCAAGGGACAAACGGCGAGGCCGAACTC | 902 |
| TAACTACGTCCTTTTACTATCTACCACAATTTAATT | 1200 |
| AAACCTGTGGCTAGTGGGGGCCATGAAGGATCTGTT | 869 |
| TGGAAGGCTGGAAAAGGTTTACCACCACACTCCGGT | 606 |
| CAAGGTTGACCACACACCACCCTGTCGGAGCAGCTC | 1490 |
| TATGTGGAGTAACCGCCTTCAGTTTTCTGGTTCTGA | 763 |
| CAAAAGTGGTTGATGAACATTAGAATCAGGCAATGG | 670 |
| AGTCTCGCGGTGCTTGAACCAGCGAAAGTGACGTCG | 675 |
| CGAACTCCCGTACGGCCGCGCCCGCAGCCCGCCGCC | 866 |
| CGGTCCCGGCGCCTGAAGTTTTAGCTGCGGTGGCGG | 740 |
